Among all 46,000 compounds or so, about 60 (0.1%) were called active. Inconclusive results (about 3%) are left out. Calls follow the shape of the dose curve; as a rule, active = well fitted inhibition curve with a large enough effect; inconclusive = small, poorly fitted or top-dose-only effect; inactive = no such curve, though single readings can be large or run the other way. Some of the results follow.

Experimental findings from PubChem BioAssay AID1963576 (National Center for Advancing Translational Sciences (NCATS), 2024) are described below.

A short description of this assay: Primary qHTS assay for Inhibitors of ovarian cancer metastasis using an organotypic tumor microenvironment (TME) model. Also: nearly all actives have a fitted effect of over 65% in size.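 As to activity change, negative = inhibition: plate controls were DMSO wells for no effect and tomatine positive control wells for full effect.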 Particulars: SKOV3ip1-GFP adhesion/invasion on 3D omental model, fluorescence; series mostly up to 45.8 µM; activity change, negative = inhibition: at the top concentration. Put shortly: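 qHTS, 4-pt dose (0.36-46 umol/L); SKOV3ip1-GFP, 1,200 cells/well, no FBS; primary omental fibroblast/mesothelial co-culture 48 h pre-grown; 2 h RT + 16 h 37 C; PBS wash, 4% PFA; GFP count 488/509 nm.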
Turning to `CCn1cc(C(=O)N2CCN(c3cccc(C)c3C)CC2)c2cc(OC)c(OC)cc2c1=O`, the result was inactive.
As to `NS(=O)(=O)c1ccc(NC(=O)C2Cc3ccccc3N2C(=O)c2ccccc2)cc1` (stereo not given), the molecule was classed as inactive.
On the same count and under the same terms, the same measure for `COc1ccc(OC)c(CCNC(=O)Cn2ncc3c([nH]c4ccccc43)c2=O)c1`: “inactive”.
On to `CCCCN(CC)CCCNC(=O)c1nn(C)c2c1CSc1ccccc1-2`, for which the “activity change, negative = inhibition” value was inactive: 4.25%.
The same measure, in the same setting: the same measure for `Cc1ccccc1C(=O)n1nc(-c2cccnc2)nc1NCc1ccccc1`: inactive: -18.7%; for `COc1ccc(C2CC(=O)c3cc(-c4nc(-c5ccc(Cl)cc5)cs4)c(=O)[nH]c3C2)cc1OC` (stereo not given): inactive: 1.75%.
`COC(=O)c1nnn(CC(=O)NC(=O)Nc2c(C)cccc2C)c1C(=O)OC`: the call was inactive.
Consider `CC1Cc2ccccc2N1S(=O)(=O)c1nnc(NC(=O)c2ccccc2)s1` (stereo not given), for which the “activity change, negative = inhibition” value was inactive: 4.3%.
On the same count and under the same terms, the same measure for `CC(C)Oc1ccc(-c2nc3c(C#N)c[nH]n3c2NC2CCCCC2)cc1`: inactive: 0.251%.
`COc1ccc(N2CC(NC(=O)C(c3ccccc3)c3ccccc3)CC2=O)cc1OC` (stereo not given): the call was inactive.
On the same count and under the same terms, the same measure for `COCCCNC(=O)CCC(=O)NNc1nc2ccccc2c2nc(C)nn12`: “inactive”.
Turning to `CCOc1cc(N2CCC(O)CC2)ccc1Nc1ncc2c(n1)N(C)c1ccccc1C(=O)N2C`, the “activity change, negative = inhibition” value was inactive: 3.9%.
The same measure, in the same setting: the same measure for `COC(=O)c1ccc(C(=O)OC)c(NC(=O)c2ccc(-c3ccccc3)s2)c1`: inactive: 1.62%.
As to `COc1ccc(-c2nc(SCC(=O)Nc3c(C)cc(C)cc3C)n[nH]2)cc1`, the outcome was inactive.
Take `COc1ccccc1CNC(=O)c1ccc2nc(CCc3ccccc3)oc2c1`: the “activity change, negative = inhibition” value is inactive: 4.97%.
On the same count and under the same terms, the same measure for `COc1ccc(Cn2c(=O)c3cccnc3n(Cc3cccc(F)c3)c2=O)cc1`: inactive: 6.37%; for `CCOC(=O)c1c(C)oc2ncnc(Nc3ccc(OC)c(OC)c3)c12`: inactive: -7.48%.
Still for that read-out and setting: with `COc1cccc(-c2nc(S(=O)(=O)c3ccc(C)cc3)c(N3CCCCC3)o2)c1` the figure was inactive: -1.46%.
On to `COc1ccc(-c2cc3nc(C)c(CCC(=O)NC4CCCCC4)c(C)n3n2)c(OC)c1`, for which the molecule was called inactive.
Turning to `O=C(CSc1ncc(S(=O)(=O)c2ccc(Cl)cc2)c(=O)[nH]1)Nc1cccc(C(F)(F)F)c1`, the “activity change, negative = inhibition” value is inactive: -5.96%.
Still for that read-out and setting: with `Cc1cccc(C)c1NC(=O)c1sc(-n2nc(C)c(Cc3ccccc3)c2C)nc1C` the figure was inactive: -11.5%.
With `CCOC(=O)c1ccccc1NC(=O)CSc1nccn1Cc1ccco1`, the “activity change, negative = inhibition” value was inactive: 2.35%.
The same measure, in the same setting: the same measure for `CC(C)Oc1ccc(C(=O)N(Cc2ccco2)Cc2cccs2)cc1`: inactive: -3%; for `COc1ccccc1NC(=O)c1c(C)cc(C)nc1SCC(=O)c1ccc(Cl)cc1`: inactive: 3.14%.
As for `CCCS(=O)(=O)NCCc1sc2nc(-c3ccc(F)cc3)nn2c1C`, the “activity change, negative = inhibition” value was inactive: 3.02%.
On the same count and under the same terms, with `Cn1c(=O)[nH]c2cc(-c3noc(-c4ccc(C#N)cc4)n3)ccc21` the figure was inactive: -6.09%; with `Cc1cc(C)n(-c2nnc(Nc3ccc(C)c(Cl)c3)c3ccccc23)n1`, inactive: 13.6%; with `Cc1ccc2c(c1)C(c1ccccc1)N(C(=O)Cc1ccc(F)cc1)CC(=O)N2` (stereo not given), inactive: 3.09%.
As for `COc1cc(C2Nc3c(C)cc(C)cc3-c3cc(C)nn32)cc(OC)c1O` (stereo not given), the call was inactive.
Take `O=C(c1cccn1-c1nnc(N2CCCC2)s1)N1CCN(c2ccc(Cl)cc2)CC1`: the “activity change, negative = inhibition” value was inactive: 18.7%.
On the same count and under the same terms, with `Cc1ccc(S(=O)(=O)Nc2nc3n(n2)C(c2ccc(F)cc2)C=C(c2ccccc2)N3)cc1` (stereo not given) the figure was inactive: -10.7%; with `CC1=C(C(=O)Nc2ccc(Cl)cc2)C(CC(C)C)n2nc(SCc3ccccc3C)nc2N1` (stereo not given), inactive: -5.67%.
The same measure, in the same setting: the same measure for `O=C(COc1ccc2ccccc2c1)NC1CC(=O)N(c2cccc(F)c2)C1` (stereo not given): inactive: -3.78%.
The same measure, in the same setting: the same measure for `COc1ccc(C2=NC(C)(C)N(CC(=O)Nc3cccc(C)c3)C2=O)cc1`: inactive: 2.49%; for `COc1ccc(Cn2c(C(=O)O)c(CNCCc3cc(OC)ccc3OC)c3ccc(C)cc32)cc1`: inactive: 5.77%.
Regarding `CC(=O)Nc1ccc(S(=O)(=O)NCC2CCC(C(=O)NCCN(CC(C)C)CC(C)C)CC2)cc1` (stereo not given), the “activity change, negative = inhibition” value is inactive: 1.62%.
As to `CN(C)C(=O)c1c(NC(=O)c2ccccc2F)sc2c1CCCC2`, the molecule was called inactive.
Take `COc1ccccc1CNS(=O)(=O)c1cnc(N)nc1`: the “activity change, negative = inhibition” value is inactive: -15.7%.
Still for that read-out and setting: the same measure for `Cc1nc2ccn(Cc3ccco3)c(=O)c2cc1C(=O)NCc1ccccc1`: inactive: -5.58%; for `Cc1ccc(C)c(-n2c(N)c(C#N)c3nc4ccccc4nc32)c1`: inactive: 0.664%; for `COc1cc(C2C(=O)N(C3CCCCCC3)CC(=O)N2CCc2ccccc2)ccc1OC(C)C` (stereo not given): inactive: -7.97%.
The same measure, in the same setting: with `COc1ccc(NC(=O)c2oc3ccc(S(=O)(=O)N4CCOCC4)cc3c2C)cc1` the figure was inactive: -27.6%.
Consider `Cc1ccc(N2CC(C)Cn3c2nc2c3c(=O)n(Cc3cccc(Cl)c3)c(=O)n2C)cc1` (stereo not given), for which the outcome was inactive.
In the case of `O=c1oc2ccc3ccccc3c2cc1-c1nnc(Nc2ccc(F)cc2)s1`, the “activity change, negative = inhibition” value was inactive: 8.46%.
Turning to `CCCc1cc(=O)[nH]c2nnc(SCC)n12`, the molecule was called inactive.
As for `COc1ccc(C2c3c(n(C)c4ccccc34)C(=O)N2CC(=O)Nc2cccc(F)c2)cc1` (stereo not given), the “activity change, negative = inhibition” value was inactive: 6.25%.
On the same count and under the same terms, the same measure for `COc1cccc(CNc2cc(C)nc3nc(-c4ccc(C)cc4)nn23)c1`: inactive: -1.46%.
Still for that read-out and setting: with `O=C(NCC(c1ccco1)S(=O)(=O)c1cccs1)c1ccccc1F` (stereo not given) the figure was inactive: -2.96%.
Regarding `Cc1ccc(Cl)cc1N1CCN(CCCNC(=O)c2ccc3nc(N4CCCCC4)sc3c2)CC1`, the result was inactive.
`Cc1ccc(-n2nc3c(=O)n(C(C)C(=O)NCc4ccco4)nc(C)c3c2C)cc1` (stereo not given): the “activity change, negative = inhibition” value is inactive: -9.95%.
The same measure, in the same setting: the same measure for `Oc1c(C(c2ccccc2)N2CCC(O)CC2)sc2nc(-c3ccco3)nn12` (stereo not given): inactive: -7.93%.
As for `COC(=O)CC1Oc2ccc(Cl)cc2-n2cc(-c3ccccc3)nc21` (stereo not given), the call was inactive.
The same measure, in the same setting: the same measure for `O=C(NC1(C(F)(F)F)NC(=O)N(CCc2ccccc2)C1=O)c1ccc(Cl)cc1` (stereo not given): “inactive”.
On to `CCn1ccc2c(OCC(=O)Nc3ccccc3C(F)(F)F)cccc2c1=O`, for which the “activity change, negative = inhibition” value is inactive: -10.6%.
The same measure, in the same setting: with `C[C@@H](Oc1ccc2[nH]nc(C=Cc3cnn(CCO)c3)c2c1)c1c(Cl)cncc1Cl` the figure was inactive: 2.52%; with `COc1ccc(NS(=O)(=O)c2ccc3[nH]c4c(c3c2)CCCC4)cc1OC`, inactive: 2.62%; with `CCCCOc1cccc(C(=O)N(Cc2ccc(C)o2)c2ccccn2)c1`, inactive: -4.69%.
Still for that read-out and setting: the same measure for `CCOc1ccc(CCNC(=O)c2cnc3sc(N4CCCC4)nn3c2=O)cc1`: inactive: -8.47%; for `CN(Cc1ccccc1)C(=O)c1nc(-c2ccc(Cl)cc2)n2c1CCCCC2`: inactive: 1.16%; for `CC1N=C2c3ccccc3N=C(SCC(=O)NCCc3ccccc3)N2C1=O` (stereo not given): inactive: 5.93%.
The same measure, in the same setting: the same measure for `CCOC(=O)C(C)Sc1ccc2nnc(CCNS(=O)(=O)c3ccccc3)n2n1` (stereo not given): inactive: -7.47%.
For the molecule `CC(=O)Nc1ccc(NC(=O)c2ccc3c(c2)N(Cc2cccc(Cl)c2)C(=O)c2ccccc2S3(=O)=O)cc1`, the “activity change, negative = inhibition” value is inactive: 2.77%.
Consider `CCn1c(CN2CCCCC2)nc2cc(NC(=O)c3cc(OC)c(OC)c(OC)c3)ccc21`, for which the “activity change, negative = inhibition” value is inactive: -9.53%.
On the same count and under the same terms, the same measure for `Cc1ccc(C)c(NC(=O)c2ccc(CN3CC(=O)N4CCCCC4C3=O)cc2)c1` (stereo not given): inactive: -0.7%; for `COc1ccccc1CNC(=O)C1CCN(S(=O)(=O)c2ccc3c(c2)CCCN3C(C)=O)CC1`: inactive: -0.827%.
Regarding `CCC(C(=O)NC1CCC(C)CC1)n1nc(C)c2sc3ccccc3c2c1=O` (stereo not given), the molecule was called inactive.
Turning to `CCc1ccc(CNC(=O)c2cc3c(=O)n(Cc4cccs4)ccc3nc2C)cc1`, the “activity change, negative = inhibition” value is inactive: -1.1%.
On to `COc1cccc(N2CCN(C(=O)CCCCCn3c(=O)[nH]c4ccccc4c3=O)CC2)c1`, for which the “activity change, negative = inhibition” value is inactive: -5.52%.
Consider `CCc1nc2nc(C)c(NS(=O)(=O)c3ccc(C)cc3)c(=O)n2[nH]1`, for which the “activity change, negative = inhibition” value is inactive: 2.05%.
Same read-out and setting: with `COc1ccc(Cn2ccc3nc(C)c(C(=O)N4CCN(c5ccc(OC)cc5)CC4)cc3c2=O)cc1` the figure was inactive: -10.6%; with `CN(C)CCNC(=O)C(=O)NCC(c1cccnc1)N1CCN(c2ccc(F)cc2)CC1` (stereo not given), inactive: -16.4%.
For the molecule `CCOc1ccccc1NC(=O)Cn1nnc(C(=O)NCc2ccc(F)cc2)c1N`, the result was inactive.
In the case of `Cc1ccc(S(=O)(=O)N(C)Cc2nc(-c3ccccc3)oc2C)cc1`, the “activity change, negative = inhibition” value was inactive: -2.96%.
With `COc1ccc(C(=O)NCc2ccc3c(c2)CCN3C(=O)c2ccc(C)cc2)cc1`, the “activity change, negative = inhibition” value is inactive: -22.7%.
Same read-out and setting: with `O=C(NCc1ccco1)c1ccc2c(c1)N(Cc1c(F)cccc1Cl)C(=O)c1ccccc1S2` the figure was inactive: -7.07%; with `O=C(Cn1cc(SCc2ccccc2F)c2ccccc21)N1CCCCC1`, inactive: -3.19%; with `Cc1cc(C)cc(NC(=O)Cc2c(C(=O)O)c(C)cn2C)c1`, inactive: -0.0625%.
Same read-out and setting: with `COc1ccc(OC)c(NC(=O)c2cc(C3CC3)nc3c2c(C)nn3-c2ccc(C)cc2)c1` the figure was inactive: -0.686%.
Consider `COc1ccc(-c2c(C)nn3c(C(F)(F)F)cc(-c4ccccc4)nc23)cc1`, for which the “activity change, negative = inhibition” value is inactive: 5.59%.
The same measure, in the same setting: the same measure for `CCOc1ccc(N(CC)C(=O)c2nn(-c3ccc(OC)cc3)c(=O)c3c2c2ccccc2n3C)cc1`: inactive: -1.44%; for `CCc1cc2c(cc(C(=O)OC)n2Cc2nc(-c3ccc(C)cc3)oc2C)s1`: inactive: 33.5%.
Still for that read-out and setting: with `O=C(CSc1nc2c([nH]c3ccccc32)c(=O)n1-c1cccc(C(F)(F)F)c1)N1CCc2ccccc21` the figure was inactive: -15.8%.
In the case of `Cc1cccc(-n2c(=O)c3ccccc3n(Cc3ccccc3)c2=O)c1`, the result was inactive.
Same read-out and setting: with `Cc1ccc(-n2nc3ccc(NC(=O)COc4ccccc4)cc3n2)cc1Cl` the entry was “inactive”.
Consider `Cc1ccc(CNC(=O)C2CCN(Cc3nc(-c4cccc(Br)c4)oc3C)CC2)cc1`, for which the “activity change, negative = inhibition” value is inactive: -10.3%.
On to `CC(=O)c1cccc(NC(=O)C2CCN(S(=O)(=O)c3ccc4[nH]c(=O)ccc4c3)CC2)c1`, for which the “activity change, negative = inhibition” value was inactive: -7.05%.
As for `CCOc1ccc(-n2c(=O)c3c4c(sc3n(CC(=O)NC(C)CC)c2=O)CCCC4)cc1` (stereo not given), the outcome was inactive.
Turning to `COc1ccc(C(=O)Nc2nnc(SCc3cc(=O)n4cccc(C)c4n3)s2)cc1`, the “activity change, negative = inhibition” value is inactive: 5.41%.
On the same count and under the same terms, the same measure for `Cc1ccc(CNC(=O)CCCCCn2c(=O)c3sccc3n(CC(=O)Nc3c(C)cc(C)cc3C)c2=O)cc1`: inactive: -2.48%; for `CCCOc1ccc(CNC(=O)CCCn2nc(C)c3sc4ccccc4c3c2=O)cc1`: inactive: -1.8%; for `CCCSc1ncc(Cl)c(C(=O)Nc2c(C(=O)Nc3ccc(OC)cc3)oc3ccccc23)n1`: inactive: -4.34%.
On to `COc1cc(Cl)c(C)cc1NC(=O)Cn1ncc2c1-c1cc(C)ccc1OC2`, for which the call was inactive.
The same measure, in the same setting: with `Cc1cccc(CNC(=O)c2ccc3oc(=O)n(Cc4ccccc4)c3c2)c1` the entry was “inactive”.
On the same count and under the same terms, the same measure for `O=S(=O)(c1ccc(Br)cc1)c1nnn2c1nc(NCc1ccc3c(c1)OCO3)c1sccc12`: “inactive”.
In the case of `CCc1ccc(C(=O)N2CCC(c3nc(-c4ccc(S(=O)(=O)N5CCCC5)cc4)no3)CC2)cc1`, the “activity change, negative = inhibition” value was inactive: -11%.
